Laboratory results as given in PubChem BioAssay AID588855 (National Center for Advancing Translational Sciences (NCATS), 2011).
Out of some 410,000 compounds screened, about 5,000 (1.2%) were called active. Inconclusive means that the source gave no clear call. Such entries were picked first, then a sample of the others. Calls follow the shape of the dose curve; as a rule, active = well fitted inhibition curve with a large enough effect; inconclusive = small, poorly fitted or top-dose-only effect; inactive = no such curve, though single readings can be large or run the other way. Potencies of inconclusive entries are doubtful fits and often do not repeat.
Potency is read from the fitted curve at half-maximal effect; tags tell the direction and shape of the fitted curve.

Assay: qHTS for Inhibitors of TGF-b; also: nearly all actives have a fitted effect of over 65% in size
Conditions: HepG2 CAGA-GFP TGF-b/SMAD3 reporter, GFP fluorescence, 18 h, TGF-beta stimulated, 500 pg/mL final; series mostly up to 46.1 µM
Outline: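 HEPG2 CAGA-GFP cells (1000/well, DMEM with 1% FBS) were pre-incubated 2 h at 37 degrees C, given compound by pin tool, then stimulated with TGF-beta at 500 pg/mL final for 18 h before per-cell GFP fluorescence imaging.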
For `O=[N+]([O-])c1ccccc1/C=N/Nc1nnc(-c2ccccc2)c(-c2ccccc2)n1`, the Potency was “inactive”. With `CCn1cc(-c2nnnn2-c2ccc(Cl)cc2)c(=O)c2ccccc21` the Potency was “inactive”. In the case of `CCc1ccccc1NC(=O)Cn1c(=O)n(C(C)C)c(=O)c2oc3ccccc3c21`, the Potency is reported as inconclusive: 3.16 µM [inhibitor, full curve, poor fit]. In the case of `COc1ccc(OCc2nc3ccccc3n2Cc2ccc(C(C)(C)C)cc2)cc1`, the Potency is reported as active: 15.8 µM. For `CC(C)(C)c1csc(NNC(=O)c2ccc(Cl)cc2)n1`, the Potency was inconclusive: 35.5 µM [inhibitor, single point]. In the case of `CCc1ccc(CNC(=O)CN2C(=O)C3CCCCN3c3ccc(C(=O)N4CCCC4)cc32)cc1` (stereo not given), the Potency is reported as inconclusive: 35.5 µM [inhibitor, partial curve, poor fit]. For `CC(OC(=O)c1ccc(Cl)c(S(=O)(=O)N2CCc3ccccc32)c1)C(=O)Nc1ncc(Cl)cc1Cl` (stereo not given), the Potency was inconclusive: 20 µM [inhibitor, single point]. For `COc1ccc(Cl)cc1NC(=O)CN(C)C(=O)c1cc2c(F)cccc2s1`, the Potency was inconclusive: 35.5 µM [inhibitor, single point]. With `O=C(NCCCn1ccnc1)c1cc(-c2ccncc2)nc2ccccc12` the Potency was inconclusive: 11.2 µM [inhibitor, partial curve, poor fit]. For `Cc1ccc(-c2nnc(SCc3ccccc3)o2)cc1`, the Potency was “inactive”. In the case of `O=C(NCc1cccc(Br)c1)C1CCCCN1S(=O)(=O)c1ccc(F)cc1` (stereo not given), the Potency is reported as inconclusive: 35.5 µM [inhibitor, single point]. For `Cc1cccc(-c2nc(NCCN(C)C)c3ccccc3n2)c1`, the Potency was “inactive”. For `COc1ccccc1Nc1c([N+](=O)[O-])cncc1[N+](=O)[O-]`, the Potency was inconclusive: 35.5 µM [inhibitor, single point]. With `O=C(NCCN1CCOCC1)c1ccc2c(c1)N(Cc1c(F)cccc1Cl)C(=O)c1ccccc1S2` the Potency was inconclusive: 35.5 µM [inhibitor, single point]. For `CCC(C)NS(=O)(=O)c1ccc(NS(=O)(=O)c2ccccc2[N+](=O)[O-])cc1` (stereo not given), the Potency was inconclusive: 0.794 µM [inhibitor, full curve]. With `COc1ccc(CCNCc2ccc(OCc3ccccc3)cc2)cc1` the Potency was inconclusive: 35.5 µM [inhibitor, single point]. With `CC1=C(C(=O)Nc2ccccc2)C(c2cccnc2)n2nc(-c3cccnc3)nc2N1` (stereo not given) the Potency was “inactive”. In the case of `Cc1nn(-c2ccccc2)c(Cl)c1C(=O)OC(C)C(=O)NC(=O)NC1CCCCC1` (stereo not given), the Potency is reported as “inactive”. For `O=C(NN1C(=O)c2cc(Br)ccc2NC1c1cc(Br)cc(Br)c1O)c1ccncc1` (stereo not given), the Potency was inconclusive: 12.6 µM [inhibitor, partial curve, poor fit]. In the case of `O=C(COC(=O)COc1ccc(Cl)cc1Cl)NC1CCCCCC1`, the Potency is reported as “inactive”. In the case of `CC(C)c1ccc(CNc2ccc([N+](=O)[O-])cn2)cc1`, the Potency is reported as inconclusive: 35.5 µM [inhibitor, single point]. With `COc1ccc(S(=O)(=O)Nc2ccc3c(c2)C(=O)N([C@H](C)CO)C[C@H](C)[C@@H](CN(C)C(=O)Nc2ccccc2)O3)cc1` the Potency was “inactive”. In the case of `CC1C(c2ccccc2)=Nn2c(=O)n(-c3ccccc3)c(=O)n21` (stereo not given), the Potency is reported as inconclusive: 35.5 µM [inhibitor, single point]. For `COc1ccc(N2CC(C(=O)Nc3ccccc3N3CCCC3)CC2=O)c(OC)c1` (stereo not given), the Potency was inconclusive: 8.91 µM [inhibitor, partial curve]. For `Cc1ccc(C)c(N2CCN(CCCNC(=O)c3cnn(-c4cccc(Cl)c4)c3C3CCN(C(=O)OC(C)(C)C)CC3)CC2)c1`, the Potency was inconclusive: 5.62 µM [inhibitor, single point]. For `CC1(OC(=O)CCc2ccccc2)C(=O)C=C2C=C3CCCN3C=C2C1=O` (stereo not given), the Potency was inconclusive: 20 µM [inhibitor, single point]. For `Cc1nc(C)c(-c2ccccc2)c(=O)[nH]1`, the Potency was inconclusive: 7.08 µM [inhibitor, partial curve, poor fit]. With `Cc1ccc(CNC(=O)C2CCN(C(=O)N3CC(C)Oc4ccc(Cl)cc43)CC2)cc1` (stereo not given) the Potency was inconclusive: 15.8 µM [inhibitor, partial curve]. With `CC(=O)NC1CCN(CC(=O)Nc2nccs2)CC1` the Potency was inconclusive: 35.5 µM [inhibitor, single point]. In the case of `CN(Cc1c(F)cccc1Cl)C(=O)c1ccc(COc2ccccc2)cc1`, the Potency is reported as inconclusive: 3.98 µM [inhibitor, partial curve, poor fit]. In the case of `Nc1c(Cl)ncnc1N/N=C/c1cccc(O)c1`, the Potency is reported as “inactive”. In the case of `COc1cc2nc(N(CCCN(C)C)C(=O)c3ccc(S(=O)(=O)N(C)C4CCCCC4)cc3)sc2cc1OC`, the Potency is reported as “inactive”. In the case of `O=C(c1cnccn1)N1CCc2c([nH]c3ccccc23)C1c1cccc(Cl)c1` (stereo not given), the Potency is reported as “inactive”. With `O=C(CCn1cnc2onc(-c3ccc(F)cc3)c2c1=O)Nc1cccc(C(F)(F)F)c1` the Potency was inconclusive: 3.98 µM [inhibitor, partial curve, poor fit]. With `CCOc1ccc(NC(=O)C2CCCN(S(=O)(=O)c3ccc4c(c3)CC(C)N4C(C)=O)C2)cc1` (stereo not given) the Potency was “inactive”. For `COc1ccccc1C1(CCNC(C)c2cccs2)CCOC(C(C)C)C1` (stereo not given), the Potency was inconclusive: 35.5 µM [inhibitor, single point]. For `O=C(Nc1nc(-c2cccs2)cs1)c1cccc(S(=O)(=O)N2CCCCCC2)c1`, the Potency was inconclusive: 14.1 µM [inhibitor, partial curve, poor fit]. For `Cc1cc(C)cc(N2C(=O)CC(Sc3ccccc3C(=O)O)C2=O)c1` (stereo not given), the Potency was inconclusive: 7.94 µM [inhibitor, partial curve]. In the case of `Cc1ccccc1OCc1occc1C(=O)Nc1cccc(-n2cnnn2)c1`, the Potency is reported as active: 14.1 µM. In the case of `CC1(C)Cc2c(cnn2-c2ccc(F)cc2)C(NC(=O)CCN2CCCCC2=O)C1` (stereo not given), the Potency is reported as “inactive”. For `Cc1ccc(/C=C/C(=O)Nc2ccc3nc(N4CCC(C)CC4)cc(C)c3c2)cc1`, the Potency was inconclusive: 35.5 µM [inhibitor, single point]. With `Cc1cc(N2CCC(C(=O)Nc3ccc(F)cc3F)CC2)n2nc(C)c(-c3ccc(Cl)cc3)c2n1` the Potency was “inactive”. With `CCOc1ccc(C(=O)Nc2ccc3nc(N(CC)CC)cc(C)c3c2)cc1` the Potency was inconclusive: 8.91 µM [inhibitor, single point]. With `CC1(C)CC(=O)C2=C(C1)N1C(=C(C#N)C2c2ccc(Cl)cc2)N=C(N)c2ccccc21` (stereo not given) the Potency was inconclusive: 35.5 µM [inhibitor, single point]. For `Cc1cc(-c2csc(N)n2)c(C)n1CCC(C)C`, the Potency was “inactive”. With `COc1ccc(C(=O)N2CCC(C)(C(=O)NS(=O)(=O)C3CC3)C2)cc1` (stereo not given) the Potency was inconclusive: 3.16 µM [inhibitor, single point]. For `COc1cccc(-c2cnc3c(NC=O)cc(-c4ccc(N5CCN(C)CC5)cc4)cn23)c1`, the Potency was inconclusive: 11.2 µM [inhibitor, partial curve, poor fit]. With `O=C(NCCC1=CCCCC1)C1CCCN(S(=O)(=O)c2cccc3cccnc23)C1` (stereo not given) the Potency was inconclusive: 35.5 µM [inhibitor, single point]. In the case of `COc1ccccc1-c1ccc2c(c1)C(C)(Cc1ccc(F)c(Cl)c1)C(=O)N2` (stereo not given), the Potency is reported as inconclusive: 35.5 µM [inhibitor, single point]. For `CC(C)(C)NC(=O)c1cccc(NC(=O)c2ccc(NC(=O)c3ccco3)cc2)c1`, the Potency was inconclusive: 3.98 µM [inhibitor, partial curve]. For `CCOc1ccc(NC(=S)NC(=O)C2CCCC2)cc1`, the Potency was inconclusive: 15.8 µM [inhibitor, partial curve, poor fit]. With `O=C(CCC(=O)N(CC(=O)NC1CCCCC1)c1ccc(F)cc1)Nc1nccs1` the Potency was inconclusive: 35.5 µM [inhibitor, partial curve, poor fit]. For `O=C1c2cccnc2C(=O)N1Cc1ccc(Cl)cc1`, the Potency was “inactive”. With `COc1cccc(NS(=O)(=O)c2ccc3[nH]cc(C(=O)NC(C)c4ccccc4)c(=O)c3c2)c1` (stereo not given) the Potency was inconclusive: 35.5 µM [inhibitor, single point]. For `COC(=O)[C@H](CC(C)C)NS(=O)(=O)N(Cc1ccccc1)[C@@H](CC(C)C)C(=O)OC`, the Potency was inconclusive: 22.4 µM [inhibitor, single point]. In the case of `Cc1ccccc1CN1CCCN(CC(=O)Nc2ccc(F)cc2)S1(=O)=O`, the Potency is reported as “inactive”. For `O=C(c1ccccc1)C(c1ccccc1)[n+]1csc2ccccc21` (stereo not given), the Potency was inconclusive: 3.16 µM [inhibitor, full curve, poor fit]. For `Cc1cccc(NC(=O)c2cn(-c3ccccc3)nc2-c2ccccc2)c1C`, the Potency was inconclusive: 3.16 µM [inhibitor, single point]. In the case of `CN(CC(=O)Nc1ccc(Cl)c(Cl)c1)C(=O)c1cccc2cccnc12`, the Potency is reported as inconclusive: 14.1 µM [inhibitor, partial curve, poor fit]. In the case of `CC1=C(C(=O)OC(C)C)C(c2ccco2)NC(=O)N1` (stereo not given), the Potency is reported as “inactive”. In the case of `CCc1cccc(C)c1NC(=O)CSc1nc2ccncc2[nH]1`, the Potency is reported as inconclusive: 11.2 µM [inhibitor, partial curve, poor fit]. In the case of `O=C(c1ccc(CSc2nc3ccncc3[nH]2)cc1)N1CCN(c2cccc(Cl)c2)CC1`, the Potency is reported as active: 7.94 µM. In the case of `O=C1c2ccccc2C(=O)N1Cc1nc2ccccc2c(=O)n1CCCN1CCOCC1`, the Potency is reported as inconclusive: 0.112 µM [inhibitor, full curve, poor fit]. In the case of `Cc1ccc(S(=O)(=O)NC(C)(C)CN2CCc3ccccc3C2)cc1`, the Potency is reported as inconclusive: 35.5 µM [inhibitor, single point]. With `COc1ccc(NC(=O)C(=O)NCC2CCCN2S(=O)(=O)c2cc(C)ccc2C)cc1` (stereo not given) the Potency was “inactive”.
